Measurements: patent publication US8158586B2, “Inhibitors of protein kinases and uses thereof” (priority 2005, dated 2012)
“And” between values parts separate entries of the source, which are not always exact repeats. Identical values can stand only once. “Also recorded” adds a separate entry of the source. At least one structure is not confirmed: it was looked up by name or label, or the drawing left a doubt. Some entries repeat one wording, which the source may state once for all of them. Non-standard residues stand in square brackets, D forms with d. Residues, ends and D or L forms follow the SMILES beside them. *: point of attachment. Adenin9ylacetyl = Nc1ncnc2c1ncn2CC(=O)*; N(CH2CH2NHAc)Gly = CC(=O)NCCNCC(=O)O

Legend:
[1] = test system: SKOV-3 ovarian cancer cell line; assay: Cell death at 24 h after pinocytic loading, SKOV-3; type: cell-based
[2] = test system: T-24 bladder cancer cell line; assay: Cell death at 24 h after pinocytic loading, T24; type: cell-based
[3] = test system: STAT-3; assay: STAT-3 phosphorylation (Ser727, Tyr 705) in IL-6 treated U-251 cells, immunocytochemistry; type: cell-based, human; settings: 5 mM loading
[4] = test system: DU-145 prostate cancer cell line; assay: Cell death at 24 h after pinocytic loading, Du145; type: cell-based
[5] = test system: LNCap prostate cancer cell line; assay: Cell death at 24 h after pinocytic loading, LnCAP; type: cell-based
[6] = test system: IMR-32 neuroblastoma cell line; assay: Cell death at 24 h after pinocytic loading, IMR32; type: cell-based, human
[7] = test system: H-661 non-small cell lung cancer cell line; assay: Cell death at 24 h after pinocytic loading, H661; type: cell-based
[8] = test system: Pgp expression in H-661 NSCLC cells; assay: Pgp expression in H-661 NSCLC cells, flow cytometry; type: cell-based
Method: (§1) The protocol used for fixing the cells for flow cytometry is as follows. A minimum of 1.0×10^6 cells was used in each instance. Cells were trypsinized and spun down at 1,000/5 min at 4° C. All the medium was removed and the cells resuspended in 500 μl of 1×PBS, pH 7.1. The cell suspension was added into 5 mls of 1% paraformaldehyde/PBS on ice and fixed for 15 min on ice. Cells were then centrifuged at 1,000/5 min and resuspended in 10 mls of 1×PBS. Cells were centrifuged again at 1,000/5 min and resuspended in 2 mls of 70% ETOH and kept at −20° C. until needed (up to 1 week). At which time, 2 mls of 1×PBS containing 1% BSA/0.02% NaN3 was added to each tube and the cells were left on ice for 5 min to give the cells time to rehydrate. Cells were then centrifuged at 1,000/5 min and the ETOH/PBS mix removed. The cells were resuspended in 5 mls of 1×PBS and allowed to sit on ice for 5 min. This step was repeated once, then the cells were centrifuged at 1,000/5 min and resuspended in 1 ml of 1×PBS containing 1% BSA/0.02% NaN3 and 5% serum. Blocking was conducted for 30 min at room temperature with inversion every 10 min, then the primary antibody was added directly to each cell tube at the desired concentration and incubated for 1 hr at room temperature inverting every 10 min. Cells were centrifuged at 1,000/5 min, the primary antibody removed and the cells resuspended in 5 mls of 1×PBS. This step was repeated once. Cells were centrifuged at 1,000/5 min and resuspended in 1 ml of 1×PBS w/1% BSA and 0.02% NaN3 (that contains 5% serum) and the secondary antibody was added. Tubes were protected from the light and incubated for 1 hr at room temperature inverting every 10 min. Cells were then centrifuged at 1,000/5 min, the secondary antibody removed and the cells resuspended in 5 mls of 1×PBS. This step was repeated once and then the cells were centrifuged at 1,000/5 min and resuspended in 1 ml of 1×PBS w/1% BSA and 0.02% NaN3 (with the 5% serum added). Tubes were kept on ice until needed for flow cytometry.
(§2) In view of the key role of the Pgp170 and MRP-1 proteins in MDR, the effect of the PKI compounds on expression of these proteins in LS180 colon cancer cells and H-661 NSCLC cells was investigated. Cells were exposed to doxorubicin (50 ng/mL) for 3 days prior to exogenous treatment with the PKI compounds at a concentration of 5 μM. Results were acquired by flow cytometry, conducted as outlined in Example 17 above, after labelling of the cells with the appropriate antibody (either P-gp #sc 1517 or MRP-1 #sc 7774). The number of cells individually analysed amounted to approximately 50,000 with a statistical error of about 0.08%.
(§3) The increase in the expression of P-gp and MRP-1 was assessed by comparing the % of cells expressing the protein in question in the presence and absence of doxorubicin (i.e. the ratio A/B in the Tables).

[9] = test system: MRP-1 expression in LS180 colon cancer cells; assay: MRP-1 expression in LS180 colon cancer cells, flow cytometry; type: cell-based
Method: as §1, §2, §3

[10] = test system: PKCα expression in LS180 colon cancer cells; assay: Expression of PKCα in LS180 cells, flow cytometry; type: cell-based; settings: LS180; exogenous treatment, 5 μM
Method: The effect of compounds 1 to 10 on doxorubicin-induced expression of PKCα in LS180 colon cancer cells and H-661 NSCLC cells was investigated. Cells were exposed to doxorubicin (50 ng/mL) for 3 days prior to exogenous treatment with the PKI compounds at a concentration of 5 μM. Results were acquired by flow cytometry after labelling of the cells with the PKC-alpha #sc 208 antibody.
as §1

[11] = test system: pERK1/2; assay: pERK1/2 in serum-stimulated IMR-32 neuroblastoma cells, immunofluorescence (indirect MEK1/2); type: cell-based, human; settings: 5 mM loading, control stimulated 105.3, control starved 59.5
[12] = test system: LS-180 colon cancer cell line; assay: Cell death at 24 h after pinocytic loading, LS180; type: cell-based
[13] = test system: Pgp expression in LS180 colon cancer cells; assay: Pgp expression in LS180 colon cancer cells, flow cytometry; type: cell-based
Method: as §1, §2, §3

[14] = test system: MCF-7 breast cancer cell line; assay: Cell death at 24 h after pinocytic loading, MCF-7; type: cell-based
[15] = test system: Bcl-2; assay: Bcl2 sublocalization, immunolabelling; type: cell-based
[16] = test system: U-251 glioblastoma cell line; assay: Cell death at 24 h after pinocytic loading, U251; type: cell-based, human
[17] = test system: MRP-1 expression in H-661 NSCLC cells; assay: MRP-1 expression in H-661 NSCLC cells, flow cytometry; type: cell-based
Method: as §1, §2, §3

[18] = test system: MDA-MB-231 breast cancer cell line; assay: Cell death at 24 h after pinocytic loading, MDA-MB-231; type: cell-based
[19] = test system: MDA-MB-231 cells; assay: Cell motility of MDA-MB-231 cells (petri dish method of Zhang); type: cell-based

`CC(=O)NCCN(CC(=O)NCC(=O)N[C@@H](CS)C(=O)N[C@@H](CCCCN)C(=O)NCC(=O)N[C@@H](CCCCN)C(=O)N[C@@H](Cc1ccccc1)C(=O)N[C@@H](CCCCN)C(=O)N[C@@H](CCCNC(=N)N)C(N)=O)C(=O)Cn1cnc2c(N)ncnc21` [Compound 10] (Adenin9ylacetyl-[N(CH2CH2NHAc)Gly]GCKGKFKR-NH2; N-terminus and C-terminus assumed) was tested, and the “Percentage Cell Death at 24 h, SKOV-3” value ([1]; 5 mM) was 1%, the “Percentage Cell Death at 24 h, SKOV-3” value ([1]; 10 mM) was 5% and the “Percentage Cell Death at 24 h, T24” value ([2]; 5 mM) was 3%. The “Percentage Cell Death at 24 h, T24” value ([2]; 10 mM) was 28%, the “inhibition of Tyr phosphorylation of STAT-3” value [3] was about 30% and the “Anti-Serine Antibody FL Density” value ([3]; pSTAT3 Ser727, control 70.15) was 95.07. The “Anti-Tyrosine Antibody FL Density” value ([3]; pSTAT3 Tyr 705, control 43) was 30.45, the “Percentage Cell Death at 24 h, Du145” value ([4]; 5 mM) was 6% and the “Percentage Cell Death at 24 h, Du145” value ([4]; 10 mM) was 40%. The “Percentage Cell Death at 24 h, LnCAP” value ([5]; 5 mM) was 11%, the “Percentage Cell Death at 24 h, LnCAP” value ([5]; 10 mM) was 23% and the “Percentage Cell Death at 24 h, IMR32” value ([6]; 5 mM) was 23%. For the same compound, the “Percentage Cell Death at 24 h, IMR32” value ([6]; 10 mM) was 30%, the “Percentage Cell Death at 24 h, H661” value ([7]; 5 mM) was 13% and the “Percentage Cell Death at 24 h, H661” value ([7]; 10 mM) was 16%. For the same compound, the “Cells expressing Pgp, +Doxorubicin (A)” value ([8]; compound 0.5 μM) was 62.42% and 47.55%, the “Cells expressing Pgp, No Doxorubicin (B)” value ([8]; compound 0.5 μM) was 4.14% and 4.13% and the “Pgp Ratio A/B” value ([8]; compound 0.5 μM) was 15.1 and 11.5. For the same compound, the “Cells expressing Pgp, +Doxorubicin (A)” value ([8]; compound 1 μM) was 61.75% and 49.06%, the “Cells expressing Pgp, No Doxorubicin (B)” value ([8]; compound 1 μM) was 8.77% and 2.54% and the “Cells expressing Pgp, +Doxorubicin (A)” value ([8]; compound 5 μM) was 56.3% and 54.21%. For the same compound, the “Cells expressing Pgp, No Doxorubicin (B)” value ([8]; compound 5 μM) was 6.10% and 2.53%, the “MRP-1 expression” value ([9]; cells exposed to doxorubicin) was “inhibited MRP-1 expression” and the “Cells expressing MRP-1, +Doxorubicin (A)” value ([9]; compound 0.5 μM) was 6.77%. The “Cells expressing MRP-1, No Doxorubicin (B)” value ([9]; compound 0.5 μM) was 3.09%, the “MRP-1 Ratio A/B” value ([9]; compound 0.5 μM) was 2.19 and the “Cells expressing MRP-1, +Doxorubicin (A)” value ([9]; compound 1 μM) was 6.8%. For the same compound, the “Cells expressing MRP-1, No Doxorubicin (B)” value ([9]; compound 1 μM) was 3.64%, the “MRP-1 Ratio A/B” value ([9]; compound 1 μM) was 1.87 and the “Cells expressing MRP-1, +Doxorubicin (A)” value ([9]; compound 5 μM) was 7.91%. For the same compound, the “Cells expressing MRP-1, No Doxorubicin (B)” value ([9]; compound 5 μM) was 3.22%, the “MRP-1 Ratio A/B” value ([9]; compound 5 μM) was 2.46 and the “basal expression of MRP-1” value ([9]; without doxorubicin) was “lower values than that of the controls”. The “intracellular level of PKCα, cells not exposed to doxorubicin” value [10] was “indications of a dose response”, the “pERK1/2 FL Density” value [11] was 93.7 and the “Percentage Cell Death at 24 h, LS180” value ([12]; 5 mM) was 13%. For the same compound, the “Percentage Cell Death at 24 h, LS180” value ([12]; 10 mM) was 18%, the “Cells expressing Pgp, +Doxorubicin (A)” value ([13]; compound 0.5 μM) was 24.52% and the “Cells expressing Pgp, No Doxorubicin (B)” value ([13]; compound 0.5 μM) was 4.62%. For the same compound, the “Pgp Ratio A/B” value ([13]; compound 0.5 μM) was 5.31, the “Cells expressing Pgp, +Doxorubicin (A)” value ([13]; compound 1 μM) was 22.44% and the “Cells expressing Pgp, No Doxorubicin (B)” value ([13]; compound 1 μM) was 4.41%. For the same compound, the “Pgp Ratio A/B” value ([13]; compound 1 μM) was 5.09, the “Cells expressing Pgp, +Doxorubicin (A)” value ([13]; compound 5 μM) was 28.36% and the “Cells expressing Pgp, No Doxorubicin (B)” value ([13]; compound 5 μM) was 4.45%. For the same compound, the “Pgp Ratio A/B” value ([13]; compound 5 μM) was 6.37, the “P-gp basal expression” value ([13]; without doxorubicin) was “decreased the basal expression to a variable extent; also recorded: altering the Pgp level very efficiently” and the “Percentage Cell Death at 24 h, MCF-7” value ([14]; 5 mM) was 26%. The “Percentage Cell Death at 24 h, MCF-7” value ([14]; 10 mM) was 29%, the “effect on Bcl2 expression and localisation” value [15] was “mediates the translocation of the Bcl2 protein in the nucleus” and the “Bcl2 label intensity, Perinuclear” value ([15]; control 0) was 1. The “Bcl2 label intensity, Cytoplasmic” value ([15]; control 1) was 1, the “Bcl2 label intensity, Nuclear” value ([15]; control 2) was 3 and the “Percentage Cell Death at 24 h, U251” value ([16]; 5 mM) was 10%. For the same compound, the “Percentage Cell Death at 24 h, U251” value ([16]; 10 mM) was 21%, the “Cells expressing MRP-1, +Doxorubicin (A)” value ([17]; compound 0.5 μM) was 48.62% and 59.96% and the “Cells expressing MRP-1, No Doxorubicin (B)” value ([17]; compound 0.5 μM) was 3.91% and 10.59%. For the same compound, the “Cells expressing MRP-1, +Doxorubicin (A)” value ([17]; compound 1 μM) was 58.75% and 62.60%, the “Cells expressing MRP-1, No Doxorubicin (B)” value ([17]; compound 1 μM) was 4.82% and 12.54% and the “Cells expressing MRP-1, +Doxorubicin (A)” value ([17]; compound 5 μM) was 59.26% and 64.63%. For the same compound, the “Cells expressing MRP-1, No Doxorubicin (B)” value ([17]; compound 5 μM) was 12.93% and 10.2%, the “MRP-1 Ratio A/B” value ([17]; compound 5 μM) was 4.6 and 6.3 and the “MRP-1 expression” value ([17]; without doxorubicin) was “decreased MRP-1 expression”. For the same compound, the “Percentage Cell Death at 24 h, MDA-MB-231” value ([18]; 5 mM) was 21%, the “Percentage Cell Death at 24 h, MDA-MB-231” value ([18]; 10 mM) was 33% and the inhibition of motility ([19]; After 5 days) was 3.5%. The inhibition of motility ([19]; day 3 or 4) was “No inhibition”.
